{"source": "ChEMBL document CHEMBL1201862", "about": "“PubChem BioAssay data set” (2004)", "note": "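Results reflect a 48-hour exposure of cells in 96-well plates to compound at five concentrations. At the GI50, growth is halved.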 Active and inactive are the calls of the source. No stated cut-off is given here; in the data, active = GI50 up to about 1.1 µM and inactive = higher."}
{"test_system": "NCI-H322M", "assay": "growth of human tumour cells (NCI), 48 h"}
{"smiles": "CC(=O)Oc1cc(C)c2c(c1OC(C)=O)CC1(O2)[C@@H](C)CCC2[C@@]3(C)CC[C@H](OC(C)=O)C(C)(C)C3CC[C@]21C", "note": "(some centres undefined)", "GI50": "inactive: 22.1 µM"}
{"smiles": "C(=N\\c1ccc(-c2nc3ccccc3s2)cc1)/c1ccc[nH]1", "GI50": "inactive: 26.6 µM"}
{"smiles": "Cc1cc(S(=O)(=O)Nc2nc3cccnc3[nH]2)c(S)cc1Cl", "GI50": "inactive: 67.6 µM"}
{"smiles": "CCc1c(OC(C)=O)c2c(NC3OCC(OC(C)=O)C(OC(C)=O)C3OC(C)=O)nc(SC)nc2oc1=O", "note": "(centres undefined)", "GI50": "inactive: > 100 µM"}
{"smiles": "N#Cc1nc(CSCc2ccccc2)oc1N", "GI50": "inactive: > 100 µM"}
{"smiles": "C1=N\\c2ccc(cc2)-c2ccc(cc2)/N=C\\c2ccccc2OCc2cccc(n2)COc2ccccc2/1", "GI50": "inactive: > 100 µM"}
{"smiles": "OC1CN(OC/C=C/c2ccccc2)CC(O)C1O", "note": "(centres undefined)", "GI50": "inactive: > 100 µM"}
{"smiles": "O=C(CSCC(=O)N/N=C\\c1ccccc1F)N/N=C\\c1ccccc1F", "GI50": "inactive: > 100 µM"}
{"smiles": "[O-][S+](CCc1ccccc1)Nc1ccccc1", "note": "(centres undefined)", "GI50": "inactive: > 100 µM"}
{"smiles": "COC(=O)c1c(C)nc(C)c(N=O)c1-c1ccccc1C(F)(F)F", "GI50": "inactive: > 100 µM"}
{"smiles": "N#CC12CCC(O)C(CC1)C2=O", "note": "(centres undefined)", "GI50": "inactive: > 100 µM"}
{"smiles": "Cc1cccc(/N=C/C=C(\\Cl)c2ccc3ccccc3c2)c1", "GI50": "inactive: 23 µM"}
{"smiles": "O=[N+]([O-])c1ccc(C2N3CCCCC3[C@@H]3c4[nH]c5ccccc5c4CCN23)cc1", "note": "(some centres undefined)", "GI50": "inactive: 19.6 µM"}
{"smiles": "Cc1ccc(C(O)/C(=N/N)c2nc3ccc([N+](=O)[O-])cc3nc2O)cc1", "note": "(centres undefined)", "GI50": "inactive: 68.9 µM"}
{"smiles": "O=C(N/N=C(COc1ccc(Cl)cc1)\\N=C\\c1cccnc1)c1ccncc1", "GI50": "inactive: > 100 µM"}
{"smiles": "CCN(CC)CCOc1ccc(C(=C2CCCCC2)c2ccc(OCCN(CC)CC)cc2)cc1", "GI50": "inactive: 1.5 µM"}
{"smiles": "NC(=O)c1cc2ccccc2c(/N=N/c2ccccc2)c1O", "GI50": "inactive: > 100 µM"}
{"smiles": "CCOC(=O)c1nnsc1NC(=O)Nc1ccc(Cc2ccc(NC(=O)Nc3snnc3C(=O)OCC)cc2)cc1", "GI50": "inactive: 64 µM"}
{"smiles": "O=C(O)c1c(-c2ccccc2)c(=O)[nH]c2ccccc12", "GI50": "inactive: > 100 µM"}
{"smiles": "COC(=O)C1Cc2ccc(C)cc2C1=O", "note": "(centres undefined)", "GI50": "inactive: > 100 µM"}
{"smiles": "CC1=NN(C(=O)CC(=O)Nc2ccccc2Cl)C(=O)C1/N=N/c1ccc(C(=O)O)cc1", "note": "(centres undefined)", "GI50": "inactive: > 100 µM"}
{"smiles": "COC(=O)C(C(=O)C(=O)Nc1cccc([N+](=O)[O-])c1)c1nc2ccc([N+](=O)[O-])cc2nc1O", "note": "(centres undefined)", "GI50": "inactive: > 100 µM"}
{"smiles": "O=C1c2ccccc2C(=O)c2[nH]c(Cc3ccc(F)cc3)nc21", "GI50": "inactive: 16 µM"}
{"smiles": "O=C(Nc1ccc(C(F)(F)F)cc1[N+](=O)[O-])C(=O)C1NC(=S)NC1=O", "note": "(centres undefined)", "GI50": "inactive: > 100 µM"}
{"smiles": "NC1CC(=O)c2csc(Br)c21", "note": "(centres undefined)", "GI50": "inactive: 39.6 µM"}
{"smiles": "Cc1c(/N=N/c2ccc(Cl)cc2)c(-c2ccccc2)n(C2OC(CO)C(O)C(O)C2O)c(=S)c1C#N", "note": "(centres undefined)", "GI50": "inactive: 15.7 µM"}
{"smiles": "COc1ccc(N2C(=O)C3CC(c4ccc(Br)cc4)c4c([nH]c5ccccc45)C3C2=O)cc1", "note": "(centres undefined)", "GI50": "inactive: 14.1 µM"}
{"smiles": "CC1CC2C3CC(F)C4=CC(=O)C=CC4(C)C3(F)C(O)CC2(C)C1(O)C(=O)CO", "note": "(centres undefined)", "GI50": "inactive: > 100 µM"}
{"smiles": "Cc1ccc(C(=O)/C=C2\\Nc3ccccc3SC2=O)c(C)c1", "GI50": "inactive: > 100 µM"}
{"smiles": "COc1cc2c(cc1OCCCCOc1cc3nc(C)nc(Cl)c3cc1OC)N=C[C@@H]1CCCN1C2=O", "GI50": "inactive: 1.97 µM"}
{"smiles": "CCCOC(=O)CNC(=O)OC(C)(C)C", "GI50": "inactive: > 100 µM"}
{"smiles": "CCCCCCCCCCSS(=O)(=O)c1ccc(C)cc1", "GI50": "inactive: 17.4 µM"}
{"smiles": "COc1cccc(-c2nc(N)c(C#N)c3c2CCS(=O)(=O)c2ccc(C)cc2-3)c1", "GI50": "inactive: 41.4 µM"}
{"smiles": "CC(C)(Cl)C(Br)CCC(Br)(CCl)C(Cl)CBr", "note": "(centres undefined)", "GI50": "inactive: > 10 µM"}
{"smiles": "O=S(=O)(c1ccc(/N=N/O)nc1)c1ccc2ccccc2c1", "GI50": "inactive: > 100 µM"}
{"smiles": "CC(NNC(=O)c1cc[n+]([BH2-]C#N)cc1)C(F)(F)F", "note": "(centres undefined)", "GI50": "inactive: > 100 µM"}
{"smiles": "C=CC[C@]12C=C(OC)[C@@H](O)[C@](OC)(C(c3cc(OC)c4c(c3)OCO4)[C@H]1C)[C@H]2OC(C)=O", "note": "(some centres undefined)", "GI50": "inactive: > 100 µM"}
{"smiles": "CCC1(O)CC(OC2CC(N(C)C)C(OC3CC(O)C(OC4OC(C)C(=O)C=C4N)C(C)O3)C(C)O2)c2c(cc3c(c2O)C(=O)c2c(O)cccc2C3=O)C1C(=O)OC", "note": "(centres undefined)", "GI50": "active: 0.01 µM"}
{"smiles": "O=C1Cc2c(-c3ccccc3)cc(-c3cccc(Cl)c3)nc2-c2ccccc2N1", "GI50": "inactive: 2.11 µM"}
{"smiles": "CCSc1nc(COC(=O)NC)c(COC(=O)NC)n1C", "GI50": "inactive: > 100 µM"}
{"smiles": "COC(=O)[C@@H]1COC(C(C)(C)C)N1C(=O)C(c1ccccc1)c1ccccc1", "note": "(some centres undefined)", "GI50": "inactive: 43.6 µM"}
{"smiles": "CCC1C(=O)OCc2c1cc1n(c2=O)Cc2ccccc2-1", "note": "(centres undefined)", "GI50": "inactive: > 100 µM"}
{"smiles": "O=C(O)CN(c1ccc(F)cc1)S(=O)(=O)c1ccccc1", "GI50": "inactive: > 100 µM"}
{"smiles": "CCN(CC)CCCC(C)Nc1c2ccc(Cl)cc2nc2ccc(OC)cc12", "note": "(centres undefined)", "GI50": "inactive: 1.69 µM"}
